Experimental data taken from the supplement of paper PMC11741623.
Some of the results follow. Interaction screen of human proteins with wild-type SARS-CoV-2 proteins by split-DHFR complementation in yeast, 1 µg/mL methotrexate. Value = fitness of the pair (three or more lineages) minus that of the viral protein without a human partner, on a scale set by negative (0) and fused positive (1) controls, mean of up to three cultures; higher = more likely to interact. Active = false discovery rate below 0.05 (one-sided t-test) in at least one culture. Nearly all pairs are not hits, and differences among them are mostly noise (correlation between cultures about 0.3); most hits were seen in one culture only. Human sequences are the Swiss-Prot entries looked up by gene name; the clone may be another isoform. NSP2 values were corrected by the authors for a growth advantage. Listed are human proteins with a hit and a random twelfth of the others.

These substances were tested on SARS-CoV-2 NSP15 (assay: yeast fitness gain over the viral ORF with no human partner (scaled fitness); higher = more likely to interact).
Description: (§1)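 Split mouse DHFR complementation in pooled diploid yeast: human ORFeome clones carry one fragment and viral ORFs the other; barcoded lineages compete in 1 µg/mL methotrexate and fitness is read by barcode sequencing in up to three cultures.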

Row | Substance | yeast fitness gain
1 | BHLHA15, Q7RTS1 | inactive: -0.181
2 | SOX14, O95416 | inactive: 0.00206
3 | KPNA1, P52294 | inactive: 0.0531
4 | HAUS7, Q99871 | inactive: 0.0407

These substances were tested on SARS-CoV-2 NSP16 in the same assay as above.
Description: as §1

Row | Substance | yeast fitness gain
5 | LARP1B, Q659C4 | inactive: 0.0825
6 | ZFYVE26, Q68DK2 | inactive: 0.0518
7 | MAFF, Q9ULX9 | inactive: -0.109
8 | SOX14, O95416 | inactive: 0.00298
9 | EGR3, Q06889 | inactive: 0.0298

These substances were tested on SARS-CoV-2 NSP1 in the same assay as above.
Description: as §1

Row | Substance | yeast fitness gain
10 | MCM9, Q9NXL9 | inactive: -0.203
11 | BNIP3L, O60238 | inactive: 0.0427
12 | DESI2, Q9BSY9 | inactive: -0.0358
13 | CBWD1, Q9BRT8 | inactive: 0.0485
14 | KPNA1, P52294 | inactive: -0.0408
15 | HAUS7, Q99871 | inactive: -0.0212

These substances were tested on SARS-CoV-2 NSP2 in the same assay as above.
Description: as §1

Row | Substance | yeast fitness gain
16 | MCM9, Q9NXL9 | inactive: 0.000442
17 | ZFYVE26, Q68DK2 | inactive: -0.137
18 | MAFF, Q9ULX9 | inactive: -0.0193
19 | BNIP3L, O60238 | inactive: -0.293
20 | TLK2, Q86UE8 | inactive: -0.107
21 | BHLHA15, Q7RTS1 | inactive: -0.233
22 | PTBP1, P26599 | inactive: 0.0522
23 | DESI2, Q9BSY9 | inactive: -0.201
24 | ZNF720, Q7Z2F6 | inactive: -0.0523
25 | EGR3, Q06889 | inactive: -0.0814
26 | KPNA1, P52294 | inactive: -0.147
27 | HYDIN, Q4G0P3 | inactive: -0.138
28 | ZNF611, Q8N823 | inactive: -0.614
29 | TET2, Q6N021 | inactive: -0.287
30 | HAUS7, Q99871 | inactive: -0.263
31 | HOXC8, P31273 | inactive: -0.229

These substances were tested on SARS-CoV-2 NSP5 in the same assay as above.
Description: as §1

Row | Substance | yeast fitness gain
32 | LARP1B, Q659C4 | inactive: -0.0873
33 | MCM9, Q9NXL9 | inactive: 0.0323
34 | ZFYVE26, Q68DK2 | inactive: 0.0264
35 | MAFF, Q9ULX9 | inactive: -0.0541
36 | BNIP3L, O60238 | inactive: -0.184
37 | TLK2, Q86UE8 | inactive: -0.0509
38 | BHLHA15, Q7RTS1 | inactive: -0.0479
39 | EGR3, Q06889 | inactive: -0.0521
40 | CBWD1, Q9BRT8 | inactive: -0.13
41 | KPNA1, P52294 | inactive: -0.0842
42 | HAUS7, Q99871 | inactive: -0.0658

Each substance was assayed on SARS-CoV-2 NSP6 in the same assay as above.
Description: as §1

Row | Substance | yeast fitness gain
43 | LARP1B, Q659C4 | inactive: 0.0502
44 | MCM9, Q9NXL9 | inactive: 0.122
45 | OR4D1, Q15615 | inactive: 0.0358
46 | ZFYVE26, Q68DK2 | inactive: 0.156
47 | MAFF, Q9ULX9 | inactive: -0.0305
48 | BHLHA15, Q7RTS1 | inactive: 0.169
49 | PTBP1, P26599 | inactive: 0.195
50 | SOX14, O95416 | inactive: -0.00417
51 | ZNF720, Q7Z2F6 | inactive: -0.00278
52 | CBWD1, Q9BRT8 | inactive: -0.161
53 | KPNA1, P52294 | inactive: 0.00227
54 | HAUS7, Q99871 | inactive: -0.067

These substances were tested on SARS-CoV-2 NSP7 in the same assay as above.
Description: as §1

Row | Substance | yeast fitness gain
55 | ZFYVE26, Q68DK2 | inactive: -0.138
56 | TLK2, Q86UE8 | inactive: 0.0258
57 | BHLHA15, Q7RTS1 | inactive: 0.0533
58 | PTBP1, P26599 | inactive: 0.189
59 | ZNF720, Q7Z2F6 | inactive: -0.218
60 | CBWD1, Q9BRT8 | inactive: 0.119
61 | KPNA1, P52294 | inactive: 0.247
62 | HYDIN, Q4G0P3 | inactive: 0.0582
63 | TET2, Q6N021 | inactive: -0.0934
64 | HAUS7, Q99871 | inactive: 0.000141

Each substance was assayed on SARS-CoV-2 NSP8 in the same assay as above.
Description: as §1

Row | Substance | yeast fitness gain
65 | LARP1B, Q659C4 | inactive: -0.102
66 | BHLHA15, Q7RTS1 | inactive: -0.324
67 | SOX14, O95416 | inactive: -0.0493
68 | KPNA1, P52294 | inactive: -0.0293
69 | HAUS7, Q99871 | inactive: -0.0852

The substances below were run on SARS-CoV-2 NSP9 in the same assay as above.
Description: as §1

Row | Substance | yeast fitness gain
70 | CBWD1, Q9BRT8 | inactive: 0.0851
71 | KPNA1, P52294 | inactive: 0.0672
72 | HAUS7, Q99871 | inactive: -0.169

These substances were tested on SARS-CoV-2 N in the same assay as above.
Description: as §1

Row | Substance | yeast fitness gain
73 | LARP1B, Q659C4 | inactive: -0.0739
74 | MCM9, Q9NXL9 | inactive: 0.103
75 | HYDIN, Q4G0P3 | inactive: -0.0656
76 | HAUS7, Q99871 | inactive: -0.166

The substances below were run on SARS-CoV-2 ORF10 in the same assay as above.
Description: as §1

Row | Substance | yeast fitness gain
77 | LARP1B, Q659C4 | inactive: -0.187
78 | MCM9, Q9NXL9 | inactive: -0.0853
79 | ZFYVE26, Q68DK2 | inactive: -0.159
80 | MAFF, Q9ULX9 | inactive: -0.0228
81 | BNIP3L, O60238 | inactive: 0.0473
82 | TLK2, Q86UE8 | inactive: -0.0163
83 | BHLHA15, Q7RTS1 | inactive: -0.0213
84 | PTBP1, P26599 | inactive: -0.113
85 | SRGAP1, Q7Z6B7 | inactive: -0.262
86 | EGR3, Q06889 | inactive: -0.0153
87 | KPNA1, P52294 | inactive: -0.00837
88 | HAUS7, Q99871 | inactive: -0.0107

The substances below were run on SARS-CoV-2 ORF3A in the same assay as above.
Description: as §1

Row | Substance | yeast fitness gain
89 | LARP1B, Q659C4 | inactive: -0.0411
90 | BNIP3L, O60238 | inactive: -0.104
91 | HAUS7, Q99871 | inactive: 0.0454
